Measurements as given in PubChem BioAssay AID485294 (National Center for Advancing Translational Sciences (NCATS), 2010).
Among all 370,000 compounds or so, about 150 (0.041%) were called active. The shares of active, inactive and inconclusive entries below differ from those in the screen. Calls come from the whole dose curve; as a rule, active = well fitted inhibition curve with a large enough effect; inconclusive = small, poorly fitted or top-dose-only effect; inactive = flat fitted curve, though single readings scatter. Potencies of inconclusive entries are left out as doubtful fits.

Target: Beta-lactamase (Escherichia coli (strain K12)) (UniProt P00811)
Chain of UniProt P00811 (P00811 whole entry, looked up): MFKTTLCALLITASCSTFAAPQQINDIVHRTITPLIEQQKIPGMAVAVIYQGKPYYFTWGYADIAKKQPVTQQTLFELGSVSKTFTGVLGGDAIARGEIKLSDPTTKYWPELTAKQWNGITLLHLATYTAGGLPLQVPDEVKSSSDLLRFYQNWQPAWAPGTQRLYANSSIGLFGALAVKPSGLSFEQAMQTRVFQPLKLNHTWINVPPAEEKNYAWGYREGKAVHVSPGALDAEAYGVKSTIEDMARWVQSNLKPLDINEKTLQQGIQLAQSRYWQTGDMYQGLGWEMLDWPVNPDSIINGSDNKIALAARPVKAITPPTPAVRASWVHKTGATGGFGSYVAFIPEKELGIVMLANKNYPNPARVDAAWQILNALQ
Assay: qHTS Inhibitors of AmpC Beta-Lactamase (assay with detergent); note: nearly all actives have a fitted effect of over 25% in size;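 for activity change, negative = inhibition: 0% = no-compound wells and -100% = no-enzyme wells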
Conditions: AmpC hydrolysis of nitrocefin, absorbance 480 nm, 0.01% Triton; activity change, negative = inhibition: at 114 µM (top of the series)
How it was run: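 20 mM phosphate pH 7.0 + 0.01% (detergent screen) or 0.0001% Triton X-100; 5.3 nM AmpC reagent; cpd preinc 15 min RT; nitrocefin (800 uM stock) to start; A480 q20 s × 4 min; Activity was normalised to no-enzyme and no-compound control wells.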
Potency is the fitted concentration of half-maximal effect; tags give direction and shape of the fitted curve.

SMILES | Potency | activity change, negative = inhibition
CCOC(=O)C1=C(C)NC(=O)NC1c1ccc(-c2ccc(F)cc2)o1 (centres undefined) | inconclusive [inhibitor, full curve, poor fit] | –
Cc1ccc(C)n1-c1ccc(C(=O)NCc2ccncc2)cc1 | – | inactive: -10.9%
CC1CCN(CCCOc2ccc(Br)cc2Cl)CC1 | inconclusive [inhibitor, full curve, poor fit] | –
COc1ccnc(Oc2cc(Cl)cc(Cl)c2)c1C#N | – | inactive: -7.38%
CCCN(Cc1cc2cc(C)ccc2[nH]c1=O)S(C)(=O)=O | inconclusive [inhibitor, full curve, poor fit] | –
C[C@@H]1O[C@@H](O[C@@H]2C(=O)c3c(O)cc(O)cc3O[C@H]2c2ccc(O)c(O)c2)[C@H](O)[C@H](O)[C@H]1O | – | inactive: -1.16%
CCN1CCc2c(sc(NC(=O)c3ccc(S(=O)(=O)N4CCCC4)cc3)c2C(=O)NC)C1 | inconclusive [inhibitor, full curve, poor fit] | –
Cc1cc(C)c2c(CC(=O)Nc3c(C(=O)c4ccc(F)cc4)oc4ccccc34)coc2c1 | – | inactive: 12.4%
Cn1cnnc1SCc1ccc(C(=O)O)cc1 | – | inactive: -7.41%
Cn1c(=O)c2c(SCC(=O)N3CCCc4ccccc43)nc(C3CC3)nc2n(C)c1=O | inconclusive [inhibitor, full curve, poor fit] | –
Cc1c(Cl)cnc(NC(=O)COC(=O)/C=C/c2ccco2)c1Cl | inconclusive [inhibitor, full curve] | –
Cc1ccc(S(=O)(=O)N/N=C/c2ccc(OS(=O)(=O)c3ccc(C)c([N+](=O)[O-])c3)cc2)cc1 | inconclusive [inhibitor, full curve, poor fit] | –
COc1ccc(CS(=O)c2nc(C)cc(C)c2S(C)(=O)=O)cc1 (centres undefined) | inconclusive [inhibitor, full curve, poor fit] | –
CC(=O)Nc1c(-c2ccc(F)cc2)nc2ccccn12 | inconclusive [inhibitor, full curve, poor fit] | –
O=C(Nc1ccc([N+](=O)[O-])cc1)Nc1ccc(N2CCOCC2)c2nonc12 | – | inactive: 0.282%
CCN1CCN(c2oc(/C=C/c3ccccc3)nc2C#N)CC1 | – | inactive: -4.37%
CC1CCN(c2ccc(C(=O)O)cc2N)CC1 | inconclusive [inhibitor, partial curve, poor fit] | –
COC(=O)c1ccccc1NC(=O)Cn1nc(C(F)(F)F)c2c1CCCC2 | – | inactive: -3.09%
CCOc1ccc2oc(-c3ccccc3)c(C(N)=O)c2c1 | inconclusive [inhibitor, partial curve, poor fit] | –
O=C(NC(=O)c1c(Cl)cccc1Cl)Nc1ccc(Oc2cccnc2)nc1 | – | inactive: -2.34%
CC1CN(C(=O)CCC(=O)NCCCN2CCC(Cc3ccccc3)CC2)c2cc(Cl)ccc2O1 (centres undefined) | inconclusive [inhibitor, single point] | –
COc1ccc(C(=O)Nc2nc(CC(=O)NCc3ccc(F)cc3)cs2)cc1 | inconclusive [inhibitor, full curve, poor fit] | –
CCOC(=O)c1cc(OC(=O)c2cccc(Cl)c2)n(-c2ccccc2)n1 | – | inactive: 10.6%

SMILES | Potency | activity change, negative = inhibition
Cn1cccc1-c1cc(C(=O)N/N=C/c2cc(Br)ccc2O)[nH]n1 | – | inactive: 3.8%
COc1cc(CNn2cn[nH]c2=S)ccc1OCC(=O)NC(C)(C)C | inconclusive [inhibitor, full curve, poor fit] | –
Cc1ccc(OCC(O)CNC2CCCC2)c(C)c1 (centres undefined) | inconclusive [inhibitor, full curve, poor fit] | –
CCN(C(=O)Cn1cc(C(=O)c2ccc(F)cc2)c(=O)c2ccc(C)nc21)c1cccc(C)c1 | – | inactive: 5.21%
CN(CC(=O)Nc1ccc(F)c(F)c1F)C(=O)CCCSc1nc2ccccc2[nH]1 | inconclusive [inhibitor, full curve, poor fit] | –
O=C1/C(=C/c2ccc(Cl)cc2)SC(=S)N1CCC(=O)N1CCCCC1CCO (centres undefined) | – | inactive: -0.649%
O=C(CNCCO)Nc1ccc(F)c(Cl)c1 | inconclusive [inhibitor, full curve, poor fit] | –
CC(=O)OCCOc1nc(NC(C)C)nc(NC(C)C)n1 | – | inactive: -14.8%
CCOc1ccc(NC(=O)CSc2nnc(Cn3c(=O)sc4ccccc43)n2C)cc1 | inconclusive [inhibitor, full curve, poor fit] | –
COc1cccc(OCCNc2ccc([N+](=O)[O-])cn2)c1 | – | inactive: -3.85%
Cc1ccc(-c2ocnc2C(=O)Nc2nc(C)cs2)cc1 | – | inactive: 9.4%
COc1ccc(NC(=O)C(CC(=O)O)Cc2ccccc2)cc1 (centres undefined) | inconclusive [inhibitor, full curve, poor fit] | –
COc1ccc2nc3ccccc3nc2c1 | inconclusive [inhibitor, full curve] | –
COc1cccc(CN(C)CC(=O)Nc2cccc3ccccc23)c1 | – | inactive: -3.36%
O=C(CCN1C(=O)/C(=C/c2ccc(F)cc2)SC1=S)NC1C=CS(=O)(=O)C1 (centres undefined) | – | inactive: 1.45%
COc1ccc2c(C(=O)CN(C)C3CCCCC3)c[nH]c2c1 | – | inactive: -10.9%
Cc1ccc(C(=O)NC2CCN(CCCC(=O)c3ccc(F)cc3)CC2)cc1 | – | inactive: -5.3%
Cc1ccc(N(CC(=O)Nc2cccc(C)c2)S(=O)(=O)c2cccc3nonc23)cc1 | – | inactive: 24%
CN(c1ccccc1)c1ccc(/C=C(\CCC(=O)O)c2nc3ccccc3s2)cc1[N+](=O)[O-] | inconclusive [inhibitor, partial curve, poor fit] | –
COC(=O)C1=C(C)NC2=C(C(=O)CCC2)C1c1cn(Cc2ccc(Cl)cc2Cl)nc1-c1ccccc1 (centres undefined) | inconclusive [inhibitor, full curve, poor fit] | –
CCN(CC(=O)Nc1c(F)cccc1F)C(=O)c1ccc2c(c1)NC(=O)C(C)S2 (centres undefined) | – | inactive: -11.5%
CC(=O)c1sc(NC(=O)C2COc3ccccc3O2)nc1C (centres undefined) | inconclusive [inhibitor, full curve, poor fit] | –
Nc1nc2c(nc(SCc3ccccc3Br)n2C2OC(CO)C(O)C2O)c(=O)[nH]1 (centres undefined) | inconclusive [inhibitor, single point] | –

SMILES | Potency | activity change, negative = inhibition
C/C=C(\C)CN1CCC(n2nccc2NC(=O)CCOc2ccccc2)CC1 | inconclusive [inhibitor, full curve, poor fit] | –
CCN(CC(=O)NCc1ccc(F)cc1)c1ccc(S(C)(=O)=O)cc1[N+](=O)[O-] | inconclusive [inhibitor, full curve, poor fit] | –
N#Cc1c(NC(=O)C(=O)NCCCN2CCOCC2)sc2c1CCC2 | – | inactive: 0.738%
Cc1cc(NC(=O)CSc2c(C)[nH]c3ccccc23)no1 | inconclusive [inhibitor, full curve] | –
CC(C)[C@H](N[C@@H](C)c1ccccc1)c1c(O)ccc2ccccc12 | inconclusive [inhibitor, full curve] | –
Cc1ccc(C)c(NC(=O)CN(C)C(=O)c2cccc(-n3cccc3)c2)c1 | inconclusive [inhibitor, full curve, poor fit] | –
CC(=O)Nc1ccc(S(=O)(=O)N2CCC(n3cnc4cc(F)ccc43)CC2)cc1 | inconclusive [inhibitor, full curve, poor fit] | –
C#CCn1cc[n+](CC(=O)N(C)C)c1 | inconclusive [inhibitor, full curve, poor fit] | –
Cc1cc(=O)n2[nH]c(=O)c(N=Nc3ccccc3)c2[nH]1 | inconclusive [inhibitor, partial curve, poor fit] | –
CN(C)S(=O)(=O)c1cccc(NC(=S)N/N=C/c2cc(Br)ccc2O)c1 | – | inactive: -0.882%
Cc1cc2ncn(C(=O)N3CCCC3)c2cc1C | inconclusive [inhibitor, partial curve, poor fit] | –
CCC1CCCCN1c1cc(C)nc2cc(-c3cccc(C)c3)nn12 (centres undefined) | inconclusive [inhibitor, single point] | –
CCc1ccccc1NC(=O)CN1C(=O)COc2ccc(S(=O)(=O)Nc3ccccc3)cc21 | – | inactive: -8.53%
CCOC(=O)c1cnc2c(C)c(C)ccc2c1NCCN1CCOCC1 | inconclusive [inhibitor, full curve, poor fit] | –
COc1cc(-c2nnc(SCC#CCO)o2)cc(OC)c1OC | inconclusive [inhibitor, full curve, poor fit] | –
COc1ccc(NC(=O)COC(=O)COc2cccc3c2OC(C)(C)C3)cc1 | inconclusive [inhibitor, partial curve, poor fit] | –
CCN(c1ccccc1)c1nc2ccsc2c(=O)s1 | inconclusive [inhibitor, partial curve, poor fit] | –
Cn1c(=O)c2c(-c3ccccc3Cl)n(Cc3ccc(Cl)cc3)cc2n(C)c1=O | – | inactive: 18.5%
Cc1nc(C(=O)NCC(=O)c2ccc(Cl)cc2)c(C(F)(F)F)o1 | inconclusive [inhibitor, single point] | –
c1ccc(-n2nc3ccccc3n2)cc1 | inconclusive [inhibitor, full curve, poor fit] | –
O=C(NC(Cc1ccccc1)C(=O)O)c1ccc(S(=O)(=O)N2CCCC2)cc1 (centres undefined) | inconclusive [inhibitor, partial curve] | –
OCC1(CCc2ccccc2)CCN(C/C=C/c2ccccc2)CC1 | inconclusive [inhibitor, full curve, poor fit] | –
O=C(O)CC1C(=O)NCCN1C/C=C/c1ccccc1 (centres undefined) | inconclusive [inhibitor, full curve, poor fit] | –
